Laboratory results as given in PMC4622551, “An affibody-adalimumab hybrid blocks combined IL-6 and TNF-triggered serum amyloid A secretion in vivo” (mAbs, 2014).

Biological target: T1, IL-6 receptor α (human, UniProt P08887 20-365)
T1 construct: IL-6 receptor α (IL-6Rα); bought protein captured on the plate by an anti-IL-6Rα antibody; For this first ELISA it says only 'IL-6Rα (RnD Systems)'; also called IL-6Rα; sIL-6Rα; source: bought: RnD Systems
T1 sequence (looked up): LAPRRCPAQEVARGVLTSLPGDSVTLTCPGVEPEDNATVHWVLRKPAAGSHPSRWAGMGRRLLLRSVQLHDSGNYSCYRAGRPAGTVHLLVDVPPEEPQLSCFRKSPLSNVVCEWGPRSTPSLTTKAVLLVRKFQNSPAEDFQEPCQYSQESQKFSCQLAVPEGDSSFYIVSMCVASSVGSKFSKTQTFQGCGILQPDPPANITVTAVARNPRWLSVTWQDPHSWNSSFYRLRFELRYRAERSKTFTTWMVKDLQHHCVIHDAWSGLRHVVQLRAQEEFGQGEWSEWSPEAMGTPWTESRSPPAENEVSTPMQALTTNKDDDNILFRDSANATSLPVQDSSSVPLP
Assay: ELISA; competitive ELISA; IL-6Rα (250 ng/ml) captured on plates coated with anti-IL-6Rα antibody; bio-IL-6 at 0.615 nM pre-mixed 15 min with His6-Z proteins or tocilizumab in PBS with 0.5% casein, then 1.5 h on the plate; detected with streptavidin-HRP
Settings: both partners purified

B1: biotinylated human IL-6 (ligand)
chain: not shown
modifications: biotin (Sulfo-NHS-LC-Biotin)
notes: interleukin-6 (IL-6), human; The biotinylation of Peprotech hIL-6 is described for the phage selection; The SPR and cell assays used unlabelled hIL-6 from RnD Systems; also called bio-hIL-6; bio-IL-6; source: bought: Peprotech; biotinylated with No-Weigh Sulfo-NHS-LC-Biotin and dialyzed
  binding result: binds
